# Source: PubChem BioAssay (NCI)
# A structure can be active in one record and inactive in another.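 Plates (96-well) were seeded with cells, treated with compound at one concentration, and incubated for 48 hours before percent growth was determined.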 Certain results were filed several times, with different values. The list is limited to them. Rule for the calls: active = growth percent below 10; inactive = the rest. There may be further records. The screen tested this drug many times, at its own concentration, as given; one value stands for one run. Signs of the kind (2×) stand for listed records that agree.
# Assays:
# ACHN renal = assay: NCI-60 one-dose screen, 48 h (100 = growth as untreated, 0 = no growth, -100 = all killed); details: 2.5 mM
# CAKI-1 renal = assay: as above; details: 2.5 mM
smiles,measurement,setting,value
O=c1[nH]cc(F)c(=O)[nH]1,growth,ACHN renal; runs of 1992,"active: 7.73 (2×), 2.25, 2.85, -4.06, -14.9 (2×), 7.08, 3.15, 6.19, -15.2, -32.6, 1.18, 7.27, 5.02, 2.37, -16.3, -21.6, -9.49, -23.5, -29.5, -9.2, -24.1, -45.2, -57, 6.88, 5.05, -13.4, 1.22, -13.8, -7.22, -16.9, 8.82, -46, -36.9, -51.4, -7.82, 1.08, 7.13, -30.7, 9.61, -34.6, -27.5, -17.4, 8.23, 0.221, -17.9, 8.45, -39.2, -62.3, -19.4, -29.6, 3.1, 7.09, -15, -2.74, -41.5, -21.3, -12.2 (2×), 1.39, -6.18, -33.1, -1.41, -28.7, -36.5, -32.7, -42, -39.9, -2.24, -18.2, -11.5, -29.2, -0.751, -37.8, -44.4, 3.44, -44, -42.7, -30.8, 2.07, -1.92, 3.67, -53.5, 3.54, -36.2, -15.3, 4.46, 5.76% and inactive: 14.6, 10.3, 11.6, 16.9, 11.2 (2×), 18.8, 33.5, 20.6, 11.7, 24, 16.8, 17.1, 15.4, 13.2 (2×), 22.3, 19.5, 86.4, 26.3, 12.2, 15, 11.9, 17.7, 12.1, 11.3, 16.2, 10.2, 30.3, 10.7, 12.4, 15.6%"
same,growth,ACHN renal; runs of 1993,"active: -12.9, 7.38, 6.41, 9.4, -25.1, -9.7, 2.72, -39.7, 6.3, -11.9, 3.19, 3.7, 7.85, -7.14, -22.1, 6.35, 0.537, -8.45, 8.17, -6.02, 5.37, -17.8, 5.03, -17.6, 1.72, -15.8, 8.47, 3.4% and inactive: 14.8, 20.5, 10, 18.4, 25, 20, 35.2, 14.9, 11.3, 15.1 (2×), 17.6, 22.6, 85.4, 11.7, 85.7, 13.6, 38.7, 29.1, 12.3, 10.7%"
same,growth,ACHN renal; runs of 1994,"active: 5.89, 1.08, -20.5, 3.16, 8.22, -8.58, 7.94, 0.75, -22.6, -13.3, 6.95, 0.865, 4.29, -13.6, -44.2, -1.99, -18.9, 5.75, 1.23, 8.77, 0.146, -0.523, 2.14, -3.47, 0.0859, -6.94% and inactive: 13.8, 14, 10.4, 16.2, 18.3, 11, 14.1, 16.3, 11.3%"
same,growth,ACHN renal; runs of 1995,"active: -0.786, -37, -6.19, 4.81, -13.3, -27.1, 4.85, -17.3, 1.07, -27.4, -34, 9.48, 8.86, 5.34, 7.7, 6.45, -42.2, 8.94, 1.8, 5.09, -4.57, 9.16, 9.24, 0.225, -31.3, -1.51, 9.77, -33.3, -16.3, 4.41% and inactive: 12.4, 21.6, 16.6, 15.8, 18, 25, 10.3, 23.3, 15.3%"
same,growth,ACHN renal; runs of 1996,"inactive: 10.4, 16.3 (2×), 13.4, 14.3 (2×), 11.5, 13.1, 17, 11.7, 12.6, 19, 12.7 (2×), 11.3, 13.6, 14.1, 16.5, 15.4, 11.2, 18.2, 12, 22.1, 12.8, 10.5, 15.9, 11.1, 10.3, 24.4, 26.2% and active: 4.61, 6.15, -3.45, -25.1, 8.59, -30.8, 9.58, 9.95 (2×), 3.07, -29.2, 4.68, -6, 5.37, -25.4, 1.2, -58.1, 7.59, 9.19, -15.9, 4.03, -23.2, -2.79, 1.13, 8.77, -2.9%"
same,growth,ACHN renal; runs of 1997,"inactive: 15.3, 15.5, 16.8, 24.4, 10.5, 11.8 (2×), 20.6, 20, 13.4, 13.3, 20.8, 17, 23.3, 23.2, 13.1% and active: 8.52, -16.1, -28.3, 9.48, -6.6, -7.14, -8.79, 1.25, 5.18, 7.05, 5.73, -0.131, 6, 4.27, -3.42, -14.8, 7.98, 9.36, 8.41, 4.45, 4.51, -1.32, 7.4, 3.41, -3.25, -14.7, -5.04, 3.72, 4.84, 9.33%"
same,growth,ACHN renal; runs of 1998,"active: 6.06, 0.538, 3.12, 1.45, 2.33, 9.64, -8.48, -38.5, -9.36, -13.9, 5.31% and inactive: 15.2, 25.2, 17.9, 15.6, 10, 12, 15.1, 18.3, 13.6, 16.2, 27.5, 21.5%"
same,growth,ACHN renal; runs of 1999,"inactive: 22.9% and active: 1.38, 6.72, -44.2, 6.32, -10.6, -100 (4×), -46.3, 3.36, 0.517, -93.5, -61.4, -81.5%"
same,growth,ACHN renal; runs of 2000,"active: -95.2, -17.6, -78.4, -91.7%"
same,growth,CAKI-1 renal; runs of 1991,"inactive: 19.2, 48.1, 53.2, 13, 18.3, 17.6, 19, 27.9% and active: -3.24, -6.62, 4.75, 6.79, 3.52, -14.4, 1.62, -25.4%"
same,growth,CAKI-1 renal; runs of 1992,"inactive: 28.8, 27, 27.8, 17.2, 15.3, 14.6, 27.4, 41.9, 14.1 (2×), 18.8, 17.1, 38, 20.5 (2×), 15.6, 19, 10.9, 20.3, 13.9, 13.2, 17.9, 27.1, 20, 28.3, 16.8, 12.6, 10.2, 27.3, 76.7, 23.8, 25.7, 38.5, 28, 33, 11.9 (2×), 11, 20.4, 12.5, 18.6% and active: -28.9, 4.21, -4.98, -14.7, -21.3, -5.1, -7.29, -5.74, -22, 6.87, 1.66, -6.97, -8.29, -32.8, -5.73, -8.89, 2.92, -14.1, -55.4, -55.7, 6.04, -15.9, -5.49, -33.1, -0.243, 4.57, -3.2, -20.1, -34.3, -3.31, 8.88, 8.14 (2×), -34.2, -62.5, -64 (2×), 2.96, 8.83, 6.45, 5.94, -62.6, -22.2, -80.2, -70.6, -21.6, -3.26, -4.74, 1.13, -46.8, -10.1, 6.03, -9.84, -5.34%"
same,growth,CAKI-1 renal; runs of 1993,"inactive: 22.7, 21.7, 69.7, 19, 33.7, 22.1, 23.3, 27.7, 14.4, 15, 30, 33.9, 19.8, 18.7, 46.7, 16.9, 90.5, 27.3, 29.2, 14.1, 29.8, 26.2, 13.3, 33.6% and active: 1.39, 6.95, 2.39, 8.86, 8.64, -0.823, 9.68, -12.3, -47.6, -15.3, -2.06, -9.39%"
same,growth,CAKI-1 renal; runs of 1994,"active: 4.1, -22.7, 3.89, -24.6, -21.3, -10.7, 1.44, -15.7, 4.39, -6.64, -17.2, 4.71, -1.46, -35.9, -20.3, -38.5, -48.5, -15.4% and inactive: 20.4, 12.1, 12.8, 25, 29.5, 17.6, 24.6, 26.2, 16.6, 24.8, 30.5%"
same,growth,CAKI-1 renal; runs of 1995,"active: -35, -21.6, -22.1, -23.5, 4.73, -18.9, 3.27, -5.9, -3.04, -26.6, -18.2 (2×), 6.85, -20.1, -42.3, -84.5, -9.74, -22.8, -42, -41.1, -86.6, -41.7, -28.4, 0.608, -47.6, 6.08, 0.654, -3.96, -46, -13.1% and inactive: 25.8, 18.2, 35.7, 21.2, 12, 20, 31.8%"
same,growth,CAKI-1 renal; runs of 1996,"active: -43.3, 6.6, -39.9, -14.6, -34.7, -32.5, -16.5, -17.9, -42.9, -0.771, -28.5 (2×), -17 (2×), -12, -29.8, -40.5, -24.1, -17.4, -41, -50.1, -57.7, -49, -51.8, -57.8, -69, -83.8, -33.5, -25.4, 5.87, -6.02, -2.49, 0.717, -0.382, -16.4, 5.48, -6.7, 9.68, -4.36, 6.41, -33.7, 5.36% and inactive: 13.6, 10.4 (2×), 15.8, 17.6, 18.1, 17.1, 13.1, 30.8, 11, 27.4, 96.1, 22.7, 20, 46.5, 12.9%"
